# Measurements taken from the supplement of paper PMC10037445.
# Over roughly 2,900 compounds, “NF-kB SEAP reporter activity, fold change vs agonist alone” has its median near 0.99; the highest 2% begin near 2.6. The list shows a part of the results.
# Tests used:
# RAW-Dual [1] = test: NF-kB SEAP reporter activity, fold change vs agonist alone; higher = enhanced NF-kB activity
# In short: (§1)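 Supernatant from RAW-Dual macrophages was read after 20 hours for IRF by QuantiLuc luminescence and for NF-κB by QuantiBlue absorbance at 620 nm. The cells (50,000 cells/well in DMEM, 384-well plates, 37 °C, 5% CO2) had received 50 nL of library stock by pin tool and, 1 h later, a PRR agonist. Reporter activity is expressed relative to agonist-alone wells as fold change, and wells were flagged cytotoxic if IncuCyte confluency was under 70% of agonist controls in both mask sets.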
# RAW-Dual [2] = test: NF-kB SEAP reporter activity, fold change vs agonist alone; cytotoxicity flag (confluency mask): not cytotoxic; higher = enhanced NF-kB activity
# In short: as §1
# RAW-Dual [3] = test: NF-kB SEAP reporter activity, fold change vs agonist alone; cytotoxicity flag (confluency mask): cytotoxic (confluency <70% of control); higher = enhanced NF-kB activity
# In short: as §1
# [4] = library stock concentration (final ~1000-fold dilution): 10 mM, cytotoxicity flag (confluency mask): not cytotoxic, agonist: Imiquimod (TLR7) […]
# [5] = library stock concentration (final ~1000-fold dilution): 10 mM, cytotoxicity flag (confluency mask): not cytotoxic, agonist: MPLA (TLR4) […]
# [6] = agonist: ODN 1826 (TLR9) 0.5 ug/mL
# [7] = agonist: Pam2CSK4 (TLR2/6) 0.1 ug/mL
# [8] = agonist: Pam3CSK4 (TLR2/1) 0.1 ug/mL
# [9] = library stock concentration (final ~1000-fold dilution): 10 mM, cytotoxicity flag (confluency mask): cytotoxic (confluency <70% of control), agonist: Imiquimod (TLR7) […]
# [10] = library stock concentration (final ~1000-fold dilution): 10 mM, cytotoxicity flag (confluency mask): cytotoxic (confluency <70% of control), agonist: MPLA (TLR4) […]
smiles,measurement,setting,value
COc1ccc2c3c1OC1CC(O)C=CC31CCN(C)C2 (stereo not given),NF-kB SEAP reporter activity,RAW-Dual [1]; [4],0.888
same,NF-kB SEAP reporter activity,RAW-Dual [1]; [5],1.04
COc1ccc2c3c1OC1CC(O)C=CC31CCN(C)C2 (stereo not given) (library stock concentration (final ~1000-fold dilution): 10 mM),NF-kB SEAP reporter activity,RAW-Dual [2]; agonist: LPS (TLR4) 0.1 ug/mL,1.01
same,NF-kB SEAP reporter activity,RAW-Dual [2]; [6],1.01
same,NF-kB SEAP reporter activity,RAW-Dual [2]; [7],1.05
same,NF-kB SEAP reporter activity,RAW-Dual [2]; [8],1.04
O=C(COc1cccc2c(=O)[nH]ccc12)c1ccccc1,NF-kB SEAP reporter activity,RAW-Dual [1]; [4],1.11
same,NF-kB SEAP reporter activity,RAW-Dual [1]; [5],1.1
O=C(COc1cccc2c(=O)[nH]ccc12)c1ccccc1 (library stock concentration (final ~1000-fold dilution): 10 mM),NF-kB SEAP reporter activity,RAW-Dual [2]; agonist: LPS (TLR4) 0.1 ug/mL,1.28
same,NF-kB SEAP reporter activity,RAW-Dual [2]; [6],1.17
same,NF-kB SEAP reporter activity,RAW-Dual [2]; [7],1.35
same,NF-kB SEAP reporter activity,RAW-Dual [2]; [8],1.34
CN(C)CC/C=C1/c2ccccc2COc2ccc(CC(=O)O)cc21.Cl,NF-kB SEAP reporter activity,RAW-Dual [1]; [4],0.932
same,NF-kB SEAP reporter activity,RAW-Dual [1]; [5],1
CN(C)CC/C=C1/c2ccccc2COc2ccc(CC(=O)O)cc21.Cl (library stock concentration (final ~1000-fold dilution): 10 mM),NF-kB SEAP reporter activity,RAW-Dual [2]; agonist: LPS (TLR4) 0.1 ug/mL,0.935
same,NF-kB SEAP reporter activity,RAW-Dual [2]; [6],1.01
same,NF-kB SEAP reporter activity,RAW-Dual [2]; [7],0.975
same,NF-kB SEAP reporter activity,RAW-Dual [2]; [8],1.16
CCCCCCOC(=O)c1cc(O)c(=O)c2c(O)c(O)c(OC)cc2c1,NF-kB SEAP reporter activity,RAW-Dual [1]; [4],1.2
same,NF-kB SEAP reporter activity,RAW-Dual [1]; [5],0.857
CCCCCCOC(=O)c1cc(O)c(=O)c2c(O)c(O)c(OC)cc2c1 (library stock concentration (final ~1000-fold dilution): 10 mM),NF-kB SEAP reporter activity,RAW-Dual [2]; agonist: LPS (TLR4) 0.1 ug/mL,0.614
same,NF-kB SEAP reporter activity,RAW-Dual [2]; [6],0.459
same,NF-kB SEAP reporter activity,RAW-Dual [2]; [7],0.599
same,NF-kB SEAP reporter activity,RAW-Dual [2]; [8],0.895
CS(=O)(=O)Nc1cc2occ(NC=O)c(=O)c2cc1Oc1ccccc1,NF-kB SEAP reporter activity,RAW-Dual [1]; [4],0.915
same,NF-kB SEAP reporter activity,RAW-Dual [1]; [5],1.01
CS(=O)(=O)Nc1cc2occ(NC=O)c(=O)c2cc1Oc1ccccc1 (library stock concentration (final ~1000-fold dilution): 10 mM),NF-kB SEAP reporter activity,RAW-Dual [2]; agonist: LPS (TLR4) 0.1 ug/mL,0.846
same,NF-kB SEAP reporter activity,RAW-Dual [2]; [6],0.884
same,NF-kB SEAP reporter activity,RAW-Dual [2]; [7],1.04
same,NF-kB SEAP reporter activity,RAW-Dual [2]; [8],0.819
CC(C)NC(=O)COc1cccc(-c2nc(Nc3ccc4[nH]ncc4c3)c3ccccc3n2)c1 (library stock concentration (final ~1000-fold dilution): 10 mM),NF-kB SEAP reporter activity,RAW-Dual [2]; agonist: LPS (TLR4) 0.1 ug/mL,1.31
same,NF-kB SEAP reporter activity,RAW-Dual [2]; [6],1.4
same,NF-kB SEAP reporter activity,RAW-Dual [2]; [7],0.383
same,NF-kB SEAP reporter activity,RAW-Dual [2]; [8],0.718
CC(C)NC(=O)COc1cccc(-c2nc(Nc3ccc4[nH]ncc4c3)c3ccccc3n2)c1,NF-kB SEAP reporter activity,RAW-Dual [1]; [4],0.95
same,NF-kB SEAP reporter activity,RAW-Dual [1]; [5],1.71
CCS(=O)(=O)Nc1ccc(Oc2ccc(F)cc2F)c(-c2cn(C)c(=O)c3[nH]ccc23)c1,NF-kB SEAP reporter activity,RAW-Dual [1]; [9],1.54
same,NF-kB SEAP reporter activity,RAW-Dual [1]; [10],2.13
CCS(=O)(=O)Nc1ccc(Oc2ccc(F)cc2F)c(-c2cn(C)c(=O)c3[nH]ccc23)c1 (library stock concentration (final ~1000-fold dilution): 10 mM),NF-kB SEAP reporter activity,RAW-Dual [3]; agonist: LPS (TLR4) 0.1 ug/mL,3.19
same,NF-kB SEAP reporter activity,RAW-Dual [3]; [6],2.18
same,NF-kB SEAP reporter activity,RAW-Dual [3]; [7],0.424
same,NF-kB SEAP reporter activity,RAW-Dual [3]; [8],1.13
CNc1cccc(CCOc2ccc3c(c2)CN(CC(F)(F)F)C(=O)C(CC(=O)O)C3)n1 (stereo not given) (library stock concentration (final ~1000-fold dilution): 10 mM),NF-kB SEAP reporter activity,RAW-Dual [2]; agonist: LPS (TLR4) 0.1 ug/mL,1.02
same,NF-kB SEAP reporter activity,RAW-Dual [2]; [6],0.93
same,NF-kB SEAP reporter activity,RAW-Dual [2]; [7],1.06
same,NF-kB SEAP reporter activity,RAW-Dual [2]; [8],1.21
CNc1cccc(CCOc2ccc3c(c2)CN(CC(F)(F)F)C(=O)C(CC(=O)O)C3)n1 (stereo not given),NF-kB SEAP reporter activity,RAW-Dual [1]; [4],0.935
same,NF-kB SEAP reporter activity,RAW-Dual [1]; [5],1.08
C=C(C)[C@@H]1CC[C@]2(C(=O)O)CC[C@]3(C)[C@H](CC[C@@H]4[C@@]5(C)CC[C@H](O)C(C)(C)[C@@H]5CC[C@]43C)[C@@H]12,NF-kB SEAP reporter activity,RAW-Dual [1]; [4],0.936
same,NF-kB SEAP reporter activity,RAW-Dual [1]; [5],1.23
C=C(C)[C@@H]1CC[C@]2(C(=O)O)CC[C@]3(C)[C@H](CC[C@@H]4[C@@]5(C)CC[C@H](O)C(C)(C)[C@@H]5CC[C@]43C)[C@@H]12 (library stock concentration (final ~1000-fold dilution): 10 mM),NF-kB SEAP reporter activity,RAW-Dual [2]; agonist: LPS (TLR4) 0.1 ug/mL,0.97
same,NF-kB SEAP reporter activity,RAW-Dual [2]; [6],0.853
same,NF-kB SEAP reporter activity,RAW-Dual [2]; [7],0.741
same,NF-kB SEAP reporter activity,RAW-Dual [2]; [8],0.88
O=c1ccc2cc3ccoc3cc2o1,NF-kB SEAP reporter activity,RAW-Dual [1]; [5],1.15
O=c1ccc2cc3ccoc3cc2o1 (library stock concentration (final ~1000-fold dilution): 10 mM),NF-kB SEAP reporter activity,RAW-Dual [2]; agonist: LPS (TLR4) 0.1 ug/mL,1.05
same,NF-kB SEAP reporter activity,RAW-Dual [2]; [6],0.986
same,NF-kB SEAP reporter activity,RAW-Dual [2]; [7],1.12
same,NF-kB SEAP reporter activity,RAW-Dual [2]; [8],1.19
O=C(Nc1cccc(C(F)(F)F)c1)c1cccc2cc(Oc3cc(CO)ncn3)ccc12,NF-kB SEAP reporter activity,RAW-Dual [1]; [4],0.543
same,NF-kB SEAP reporter activity,RAW-Dual [1]; [5],0.55
O=C(Nc1cccc(C(F)(F)F)c1)c1cccc2cc(Oc3cc(CO)ncn3)ccc12 (library stock concentration (final ~1000-fold dilution): 10 mM),NF-kB SEAP reporter activity,RAW-Dual [2]; agonist: LPS (TLR4) 0.1 ug/mL,0.557
same,NF-kB SEAP reporter activity,RAW-Dual [2]; [6],0.378
same,NF-kB SEAP reporter activity,RAW-Dual [2]; [7],0.216
same,NF-kB SEAP reporter activity,RAW-Dual [2]; [8],0.25
CN(CC(=O)N(Cc1ccc(C2CCCCC2)cc1)c1ccc(C(=O)O)c(O)c1)S(=O)(=O)c1c(F)c(F)c(F)c(F)c1F (library stock concentration (final ~1000-fold dilution): 10 mM),NF-kB SEAP reporter activity,RAW-Dual [2]; agonist: LPS (TLR4) 0.1 ug/mL,0.25
same,NF-kB SEAP reporter activity,RAW-Dual [2]; [6],0.547
same,NF-kB SEAP reporter activity,RAW-Dual [2]; [7],1.09
same,NF-kB SEAP reporter activity,RAW-Dual [2]; [8],0.775
CN(CC(=O)N(Cc1ccc(C2CCCCC2)cc1)c1ccc(C(=O)O)c(O)c1)S(=O)(=O)c1c(F)c(F)c(F)c(F)c1F,NF-kB SEAP reporter activity,RAW-Dual [1]; [4],0.642
same,NF-kB SEAP reporter activity,RAW-Dual [1]; [5],0.778
NC(N)=NCCCC(N)C(=O)NC(CCCN=C(N)N)C(=O)N1CCCC1C(=O)N1CC(O)CC1C(=O)NCC(=O)NC(Cc1cccs1)C(=O)NC(CO)C(=O)N1Cc2ccccc2CC1C(=O)N1C(C(=O)NC(CCCN=C(N)N)C(=O)O)CC2CCCCC21 (stereo not given),NF-kB SEAP reporter activity,"RAW-Dual [1]; library stock concentration (final ~1000-fold dilution): 2 mM water, cytotoxicity flag (confluency mask): not cytotoxic, agonist: Imiquimod (TLR7) […]",0.945
same,NF-kB SEAP reporter activity,"RAW-Dual [1]; library stock concentration (final ~1000-fold dilution): 2 mM water, cytotoxicity flag (confluency mask): not cytotoxic, agonist: MPLA (TLR4) […]",1.05
NC(N)=NCCCC(N)C(=O)NC(CCCN=C(N)N)C(=O)N1CCCC1C(=O)N1CC(O)CC1C(=O)NCC(=O)NC(Cc1cccs1)C(=O)NC(CO)C(=O)N1Cc2ccccc2CC1C(=O)N1C(C(=O)NC(CCCN=C(N)N)C(=O)O)CC2CCCCC21 (stereo not given) (library stock concentration (final ~1000-fold dilution): 2 mM water),NF-kB SEAP reporter activity,RAW-Dual [2]; agonist: LPS (TLR4) 0.1 ug/mL,0.985
same,NF-kB SEAP reporter activity,RAW-Dual [2]; [6],1.06
same,NF-kB SEAP reporter activity,RAW-Dual [2]; [7],1.1
same,NF-kB SEAP reporter activity,RAW-Dual [2]; [8],0.962
CN(C)CCN(Cc1ccc(Cl)cc1)c1ccccn1.Cl,NF-kB SEAP reporter activity,RAW-Dual [1]; [4],1.45
same,NF-kB SEAP reporter activity,RAW-Dual [1]; [5],0.986
CN(C)CCN(Cc1ccc(Cl)cc1)c1ccccn1.Cl (library stock concentration (final ~1000-fold dilution): 10 mM),NF-kB SEAP reporter activity,RAW-Dual [2]; agonist: LPS (TLR4) 0.1 ug/mL,1.15
same,NF-kB SEAP reporter activity,RAW-Dual [2]; [6],0.683
same,NF-kB SEAP reporter activity,RAW-Dual [2]; [7],0.912
same,NF-kB SEAP reporter activity,RAW-Dual [2]; [8],1.21
CC(C)=CCc1c(-c2ccc(O)cc2O)oc2c3c(cc(O)c2c1=O)OC(C)(C)C=C3,NF-kB SEAP reporter activity,RAW-Dual [1]; [9],0.77
same,NF-kB SEAP reporter activity,RAW-Dual [1]; [10],0.843
CC(C)=CCc1c(-c2ccc(O)cc2O)oc2c3c(cc(O)c2c1=O)OC(C)(C)C=C3 (library stock concentration (final ~1000-fold dilution): 10 mM),NF-kB SEAP reporter activity,RAW-Dual [3]; agonist: LPS (TLR4) 0.1 ug/mL,0.535
same,NF-kB SEAP reporter activity,RAW-Dual [3]; [6],0.487
same,NF-kB SEAP reporter activity,RAW-Dual [3]; [7],0.216
same,NF-kB SEAP reporter activity,RAW-Dual [3]; [8],0.248
O=C(Nc1ccc(O)c(C(=O)O)c1)c1cccc(NC(=O)c2ccco2)c1 (library stock concentration (final ~1000-fold dilution): 10 mM),NF-kB SEAP reporter activity,RAW-Dual [2]; agonist: LPS (TLR4) 0.1 ug/mL,0.971
same,NF-kB SEAP reporter activity,RAW-Dual [2]; [6],0.895
same,NF-kB SEAP reporter activity,RAW-Dual [2]; [7],1.05
same,NF-kB SEAP reporter activity,RAW-Dual [2]; [8],1.06
O=C(Nc1ccc(O)c(C(=O)O)c1)c1cccc(NC(=O)c2ccco2)c1,NF-kB SEAP reporter activity,RAW-Dual [1]; [4],0.942
same,NF-kB SEAP reporter activity,RAW-Dual [1]; [5],0.969
